Consider one substance from FireProtDB (doi:10.1002/pro.5560050812).

The conditions of the data set: Homo sapiens; pH 7; 22 °C; GdnHCl; CD; Sodium cacodylate 10 mM; NaCl 50 mM; reversible: yes.

In the case of “U1 small nuclear ribonucleoprotein A wild type (chain not printed)”, the unfolding free energy came out at 8.1 kcal/mol.
